# Experimental data taken from PubChem BioAssay (Tox21).
# “And” between values parts separate entries of the source, which are not always exact repeats. Equal entries are not always repeated. Inconclusive results, whose numbers are uncertain, are shown with a selection of clear calls. For some assays here: Potencies beside an inconclusive call are fits to weak or partial responses and may not hold up. The source made the active and inactive calls. Unless noted, calls come from the whole dose curve; as a rule, active = well fitted curve in the direction sought with a large enough effect in the repeat runs; inconclusive = weak or mixed curves; inactive = no such curve, though single readings can be large; an effect the other way counts as inactive or inconclusive.
# Columns and labels:
# [1] = qHTS assay to identify aromatase inhibitors - cell viability counter screen (AID 743084); details: MCF-7 aro ERE viability, CellTiter-Fluor, 24 h; activity change, negative = cytotoxicity: at 70.3 µM (top of the series);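 note: cells stimulated with testosterone during compound exposure; nearly all actives have a fitted effect of over 55% in size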; for activity change, negative = cytotoxicity: % is set by controls: 0 for no effect and ±100 for the full control effect
# [2] = target: Peroxisome proliferator-activated receptor gamma (Homo sapiens) (UniProt P37231); test: qHTS assay to identify small molecule agonists of the peroxisome proliferator-activated receptor gamma (PPARg) signaling pathway (AID 743094; active = well fitted activation curve with a large enough effect in the signal ratio in the repeat runs, not every such curve was filed as active; inconclusive = weak or mixed curves, or effect the other way; inactive = no such curve, though single readings can be large or run the other way; the % refers to the signal ratio; for activation: % is set by controls: 0 for no effect and ±100 for the full control effect); details: HEK293H PPARg-UAS-bla, beta-lactamase FRET ratio, 17 h; activation: at 57 µM (top of the series) unless noted
# Summary of the method: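 GeneBLAzer PPARg UAS-bla HEK293H cells carrying a stably integrated beta-lactamase reporter were pre-incubated 5 h at 37C, then exposed to compounds in DMSO for 17 h at 37C; LiveBLAzer B/G FRET substrate was added for 1 h at room temperature and fluorescence read.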
# [3] = qHTS assay to identify small molecule antagonists of the peroxisome proliferator-activated receptor gamma (PPARg) signaling pathway - cell viability counter screen (AID 743194); details: PPARg-bla HEK293H viability, CellTiter-Glo luminescence, 17 h; Potency: co-treated with 50 nM rosiglitazone unless noted; activity change, negative = cytotoxicity: at 62.6 µM (top of the series), co-treated with 50 nM rosiglitazone unless noted; note: nearly all actives have a fitted effect of over 55% in size
# Summary of the method: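 Cytotoxicity counter screen in PPARg-bla HEK293H cells, same wells as reporter assay. Compounds plus 50 nM rosiglitazone (final) for 17 h at 37 C, then viability read by CellTiter-Glo luminescence.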
# [4] = qHTS assay to identify small molecule agonists of the peroxisome proliferator-activated receptor delta (PPARd) signaling pathway - cell viability counter screen (AID 743211); details: PPARd-bla HEK293H viability, CellTiter-Glo luminescence, 17 h; activity change, negative = cytotoxicity: at 62.6 µM (top of the series); note: nearly all actives have a fitted effect of over 55% in size
# Summary of the method: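 Tox21 library compounds, delivered in DMSO, were incubated 17 h with PPARd-bla HEK293H cells; cytotoxicity was taken from CellTiter-Glo luminescence read 30 min after reagent addition.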
# [5] = A CellTox Green Cytotoxicity Assay to monitor cytotoxicity in HepG2 cells - 40 hour (AID 1224879); note: nearly all actives have a fitted effect of over 40% in size
# Summary of the method: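 HepG2 cells were seeded together with the CellTox Green dye at 600 cells/well, left 5 h at 37 C/5% CO2, then given compounds in DMSO. Fluorescence from dye bound to dead-cell DNA was read repeatedly over 40 h of treatment at 37 C.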
# [6] = qHTS assay to identify small molecule antagonists of the estrogen receptor alpha (ER-alpha) signaling pathway using the BG1 cell line (AID 743080; calls by dose curve;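 note: BG1 cells stimulated with 17beta-estradiol alongside compound; nearly all actives have a fitted effect of over 25% in size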; for activity change, negative = inhibition: % is set by controls: 0 for no effect and ±100 for the full control effect); details: BG1Luc4E2 ERE-luciferase antagonist mode, luminescence
# Summary of the method: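 Luciferase inhibition measured with ONE-Glo after 30 min at RT in BG1Luc4E2 cells given test compounds and 17beta-estradiol for 21.5 h at 37 C; CellTiter-Fluor viability read in the same wells beforehand.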
# [7] = target: Luciferin 4-monooxygenase (Photinus pyralis) (UniProt P08659); test: qHTS assay to identify small molecule inhibitors of firefly luciferase (AID 1224835); note: nearly all actives have a fitted effect of over 25% in size; for activity change, negative = inhibition: % is set by controls: 0 for no effect and ±100 for the full control effect
# Summary of the method: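 Biochemical qHTS: compounds run as interplate titrations against purified firefly enzyme, with D-luciferin and ATP each at its KM concentration. Light output recorded by CCD imaging.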
# [8] = target: Nuclear receptor subfamily 1 group I member 3 (Homo sapiens) (UniProt Q14994); test: qHTS assay to identify small molecule agonists of the constitutive androstane receptor (CAR) signaling pathway (AID 1224839); note: nearly all actives have a fitted effect of over 15% in size
# Summary of the method: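 Readout: firefly luciferase luminescence via ONE-Glo. System: HepG2 double-stable for hCAR and CYP2B6-2.2kb. Conditions: 15-point compound titration, PK11195 at 0.75 uM final, 24 h incubation.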
# [9] = qHTS assay to identify small molecule agonists of the sonic hedgehog signaling (Shh) pathway - cell viability counter screen (AID 1259366); note: nearly all actives have a fitted effect of over 50% in size
# Summary of the method: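 Compounds in DMSO were pin-transferred onto 3T3 Gli1-Luc cells that had settled 4hr; plates then stood 24hr at 37C and 5% CO2. One hour before the end, CellTiter-Fluor was added and fluorescence recorded.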
# [10] = target: Thyrotropin receptor (Homo sapiens) (UniProt P16473); test: qHTS assay to identify small molecule antagonists of the thyroid stimulating hormone receptor (TSHR) signaling pathway (AID 1259385; calls by dose curve; note: nearly all actives have a fitted effect of over 20% in size); details: TSHR-HEK293 cAMP HTRF, TSH-stimulated antagonist mode; activity change, negative = inhibition: at 92.4 µM (top of the series)
# Summary of the method: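 TSHR-HEK293 cells (800/well) plated 18 h, then compounds with Ro20-1724 and TSH at 1.5 ng/mL final, 30 min at room temperature. cAMP quantified by HTRF (cAMP-d2/anti-cAMP-cryptate, 1 h); 15 concentrations in triplicate.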
# [11] = Caspase-3/7 induction in HepG2 cells by small molecules, qHTS cell viability counter screen (AID 1346981); note: nearly all actives have a fitted effect of over 30% in size
# Summary of the method: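 Wild-type HepG2 cells (2,000/well) were allowed to settle for 5 hr at 37 C, 5% CO2, then dosed with compounds in DMSO by pin transfer. After 16 hr at 37 C, CellTiter-Fluor was added and fluorescence read 1 hr later.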
# [12] = qHTS assay for identifying genotoxic compounds that show differential cytotoxicity against isogenic chicken DT40 cell lines with known DNA damage response pathways - Rad54/Ku70 mutant cell line (AID 743015); details: DT40 Rad54/Ku70 mutant viability, CellTiter-Glo, 40 h; activity change, negative = cytotoxicity: at 66.8 µM (top of the series); note: nearly all actives have a fitted effect of over 60% in size
# [13] = qHTS assay to identify small molecule antagonists of the sonic hedgehog signaling (Shh) pathway - cell viability counter screen (AID 1259367); note: nearly all actives have a fitted effect of over 55% in size
# Summary of the method: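 NIH/3T3-derived Gli1-Luc reporter cells, 2,000/well, plated 4 hr before compound addition, then stimulated with conditioned medium for 24 hr at 37C. Viability measured in the same wells by CellTiter-Fluor fluorescence, reagent added at 23 hr for 1 hr.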
# [14] = A CellTox Green Cytotoxicity Assay to monitor cytotoxicity in HEK293 cells - 40 hour (AID 1224871); note: nearly all actives have a fitted effect of over 45% in size
# Summary of the method: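 HEK293 cells premixed with CellTox Green dye were seeded at 600 cells/well and left 5 h at 37 C/5% CO2 before pin transfer of 23 nL compound in DMSO. Fluorescence from dye bound to dead-cell DNA was read during 40 h treatment.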
# [15] = qHTS assay to identify small molecule agonists of the farnesoid-X-receptor (FXR) signaling pathway - cell viability counter screen (AID 743218); details: FXR-bla HEK293T viability, CellTiter-Glo luminescence, 16 h; viability change, negative = cytotoxic: at 62.6 µM (top of the series); note: nearly all actives have a fitted effect of over 45% in size
# Summary of the method: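 FXR-UAS-bla HEK 293T cells, plated 5 h at 37 C, were exposed to compounds for 16 h at 37 C. CellTiter-Glo was then added to the same wells as the bla readout; luminescence read after 30 min at room temperature.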
# [16] = qHTS RealTime-Glo MT Cell Viability Assay in HEK293 cells - 8 hour (AID 1224887); note: nearly all actives have a fitted effect of over 50% in size
# Summary of the method: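 HEK293 cells mixed with RealTime-Glo reagents (NanoLuc plus cell-permeant prosubstrate) at 600 cells/well, preincubated 5 h at 37 C/5% CO2, then given 23 nL compound in DMSO. Nonlytic luminescence from viable cells was read at 0, 8, 16, 24, 32 and 40 h.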
# [17] = qHTS assay to identify small molecule antagonists of the estrogen related receptor signaling pathway with the pleiotropic PPARgamma coactivator (PGC) from Tox21 10K library (AID 1224841; call rule not given here; note: actives are mostly falling curves and most rising ones were filed inactive; nearly all actives have a fitted effect of over 50% in size)
# Summary of the method: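 PGC/ERR reporter cells were seeded at 2,000 cells/well and held 6 hours at 37 C/5% CO2 before pin-tool addition of compounds in DMSO. After 18 hours at 37 C, One-Glo was added and luminescence read after 30 minutes at room temperature.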
# [18] = Human pregnane X receptor (PXR) small molecule agonists, qHTS cell viability counter screen (AID 1346977); note: nearly all actives have a fitted effect of over 50% in size
# Summary of the method: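 Viability counter screen: CellTiter-Fluor signal in PXR-Luc HepG2 cells, 24hr compound exposure, 37C, 5% CO2.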
# [19] = activity change, negative = inhibition: at 70.3 µM (top of the series) unless noted
# Potency is the fitted concentration of half-maximal effect; tags give direction and shape of the fitted curve or compound fluorescence and quenching.
# Chain of UniProt P16473 (P16473 whole entry, looked up): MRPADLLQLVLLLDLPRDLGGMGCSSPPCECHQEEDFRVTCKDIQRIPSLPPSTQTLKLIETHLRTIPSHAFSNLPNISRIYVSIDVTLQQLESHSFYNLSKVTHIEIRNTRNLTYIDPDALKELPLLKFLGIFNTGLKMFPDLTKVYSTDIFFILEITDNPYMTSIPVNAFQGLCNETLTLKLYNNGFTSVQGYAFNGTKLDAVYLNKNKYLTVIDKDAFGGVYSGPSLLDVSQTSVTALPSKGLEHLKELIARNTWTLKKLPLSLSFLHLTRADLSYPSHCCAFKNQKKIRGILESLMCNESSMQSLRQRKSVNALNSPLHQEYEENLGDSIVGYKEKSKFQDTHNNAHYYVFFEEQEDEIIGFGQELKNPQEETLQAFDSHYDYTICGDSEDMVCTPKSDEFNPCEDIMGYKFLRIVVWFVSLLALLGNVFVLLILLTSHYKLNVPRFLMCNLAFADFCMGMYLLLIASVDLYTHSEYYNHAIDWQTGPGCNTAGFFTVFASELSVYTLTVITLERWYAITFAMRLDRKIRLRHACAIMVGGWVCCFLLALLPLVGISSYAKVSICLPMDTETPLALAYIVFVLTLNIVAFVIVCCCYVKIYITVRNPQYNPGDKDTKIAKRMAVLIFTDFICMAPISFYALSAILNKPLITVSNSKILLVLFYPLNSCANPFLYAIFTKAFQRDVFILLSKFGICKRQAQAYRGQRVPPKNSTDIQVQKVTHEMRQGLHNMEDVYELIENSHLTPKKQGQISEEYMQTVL
# Chain of UniProt Q14994 (Q14994 whole entry, looked up): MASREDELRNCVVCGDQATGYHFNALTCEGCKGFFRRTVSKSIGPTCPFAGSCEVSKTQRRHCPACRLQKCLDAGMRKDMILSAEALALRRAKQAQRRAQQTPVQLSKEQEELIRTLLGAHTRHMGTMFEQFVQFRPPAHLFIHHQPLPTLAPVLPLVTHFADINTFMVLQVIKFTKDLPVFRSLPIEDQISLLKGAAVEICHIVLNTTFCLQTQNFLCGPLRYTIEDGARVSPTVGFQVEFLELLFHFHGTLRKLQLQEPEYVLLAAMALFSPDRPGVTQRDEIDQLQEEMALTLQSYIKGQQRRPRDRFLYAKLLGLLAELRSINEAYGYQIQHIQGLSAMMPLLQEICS
# Chain of UniProt P08659 (P08659 whole entry, looked up): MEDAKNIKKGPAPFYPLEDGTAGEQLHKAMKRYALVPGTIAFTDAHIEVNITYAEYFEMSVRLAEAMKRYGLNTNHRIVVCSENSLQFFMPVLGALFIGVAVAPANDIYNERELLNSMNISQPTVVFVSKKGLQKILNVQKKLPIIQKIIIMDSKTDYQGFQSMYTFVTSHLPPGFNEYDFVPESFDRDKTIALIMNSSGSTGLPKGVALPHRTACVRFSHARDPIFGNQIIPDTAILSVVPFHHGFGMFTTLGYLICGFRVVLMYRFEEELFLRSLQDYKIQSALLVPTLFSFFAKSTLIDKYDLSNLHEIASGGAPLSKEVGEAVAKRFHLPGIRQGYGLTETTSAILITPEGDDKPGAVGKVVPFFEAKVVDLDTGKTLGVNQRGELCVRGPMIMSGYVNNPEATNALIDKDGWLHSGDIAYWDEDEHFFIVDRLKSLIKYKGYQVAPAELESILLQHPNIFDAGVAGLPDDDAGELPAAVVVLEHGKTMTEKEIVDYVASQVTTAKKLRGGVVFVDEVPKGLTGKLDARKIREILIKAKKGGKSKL
# Chain of UniProt P37231 (P37231 whole entry, looked up): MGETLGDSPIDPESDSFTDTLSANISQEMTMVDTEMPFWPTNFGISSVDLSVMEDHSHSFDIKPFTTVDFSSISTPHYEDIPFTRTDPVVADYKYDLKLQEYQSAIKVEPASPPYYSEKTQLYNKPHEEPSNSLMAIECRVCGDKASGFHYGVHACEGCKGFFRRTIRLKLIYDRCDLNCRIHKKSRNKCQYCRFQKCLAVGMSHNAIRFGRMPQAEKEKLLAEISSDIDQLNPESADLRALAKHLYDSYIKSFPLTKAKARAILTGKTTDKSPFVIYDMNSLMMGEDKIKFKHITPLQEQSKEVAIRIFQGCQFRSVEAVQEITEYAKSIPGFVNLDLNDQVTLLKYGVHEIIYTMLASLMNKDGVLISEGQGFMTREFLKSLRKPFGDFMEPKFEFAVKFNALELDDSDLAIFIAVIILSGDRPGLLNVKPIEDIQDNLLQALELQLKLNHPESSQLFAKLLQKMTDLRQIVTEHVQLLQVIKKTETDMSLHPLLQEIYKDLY
compound,measurement,setting,value
CC(C)(O)C#N,Potency,[1],inactive
same,activation,[2],inconclusive: -0.705%
O=C(NC(=O)c1cc(F)c(F)cc1Cl)Nc1cc(F)ccc1N1CCC(C(=O)O)CC1,Potency,[1],inactive
same,Potency,[2],"inconclusive: 13.4 µM [rising, partial curve, poor fit]"
same,Potency,[3],"inconclusive: 26.8 µM [rising, single point]"
same,Potency,[4],"inconclusive: 26.8 µM [cytotoxic, single point]"
same,Potency,[5],"inconclusive: 9.52 µM [activator, single point]"
CCOP(=S)(OCC)SCSC(C)(C)C,Potency,[6]; [19],inactive
same,Potency,[7],inactive
same,Potency,[8],"inconclusive: 69.1 µM [activator, partial curve, poor fit]"
same,Potency,[5],inactive
same,Potency,[9],"inconclusive: 24.5 µM [rising, partial curve]"
same,Potency,[10],"inconclusive: 54.9 µM [falling, partial curve] and inconclusive: 43.3 µM [falling, partial curve]"
same,Potency,[11],"inconclusive: 24.3 µM [rising, partial curve]"
COc1ccc(C(O)(c2cncnc2)C2CC2)cc1 (stereo not given),Potency,[12],inactive
same,Potency,[13],inactive
N#CCc1ccc(Cl)cc1,Potency,[11],inactive
CCOP(=S)(Oc1cnc(C(C)(C)C)nc1)OC(C)C (stereo not given),Potency,[1],"inconclusive: 77 µM [cytotoxic, single point]"
same,Potency,[3],"inconclusive: 38.9 µM [rising, partial curve]"
same,Potency,[4],"inconclusive: 54.9 µM [cytotoxic, single point]"
same,Potency,[8],"inconclusive: 54.5 µM [activator, partial curve, poor fit]"
same,Potency,[14],"inconclusive: 54.9 µM [activator, single point]"
same,"activity change, negative = inhibition",[10],inconclusive: -6.03%
same,Potency,[11],inactive
CCCSP(=S)(OCC)Oc1ccc(Cl)cc1Cl (stereo not given),Potency,[12],active: 61.1 µM
same,Potency,[4],"inconclusive: 54.9 µM [cytotoxic, single point]"
same,Potency,[8],active: 27.3 µM
same,Potency,[5],inactive
same,Potency,[10],"inconclusive: 243 nM [falling, full curve, poor fit]"
CC(Cc1ccccc1)NCc1ccccc1Cl (stereo not given),Potency,[6]; [19],"inconclusive: 23.7 µM [rising, partial curve]"
same,Potency,[4],"inconclusive: 33.5 µM [cytotoxic, partial curve, poor fit]"
same,Potency,[15],"inconclusive: 33.5 µM [cytotoxic, single point]"
same,Potency,[8],active: 26.6 µM
same,Potency,[14],"inconclusive: 26.8 µM [activator, single point]"
O=C1OC(CCN2CCCCC2)OC1(c1ccccc1)c1ccccc1 (stereo not given),Potency,[15],inactive
same,Potency,[5],"inconclusive: 26.8 µM [activator, single point]"
same,Potency,[9],"inconclusive: 33.5 µM [cytotoxic, single point]"
BrCCCCCCBr,Potency,[1],inactive
same,Potency,[7],"inconclusive: 89.4 µM [inhibitor, single point]"
CCC/C(=N\OCC)C1=C(O)CC(CC(C)SCC)CC1=O (stereo not given),Potency,[8],"inconclusive: 54.8 µM [activator, partial curve]"
same,Potency,[9],inactive
same,Potency,[13],"inconclusive: 69 µM [cytotoxic, single point]"
CNNC,Potency,[6]; [19],inactive
same,Potency,[2],inactive
CCCCOCCOC(C)=O,"activity change, negative = inhibition",[6]; [19],inconclusive: -3.49%
same,"activity change, negative = inhibition",[6]; at 70.3 µM (top of the series),inactive: -1.06%
CC(C)Br,Potency,[1],inactive
same,Potency,[3],inactive
same,Potency,[16],"inconclusive: 61.8 µM [cytotoxic, partial curve, poor fit]"
same,Potency,[10],inactive
CNC(=O)O/N=C(\C)C(C)S(C)(=O)=O (stereo not given),Potency,[2],inactive
same,Potency,[5],"inconclusive: 501 µM [activator, single point]"
same,Potency,[13],"inconclusive: 708 µM [cytotoxic, single point]"
O=C(Cc1ccccc1)OCc1ccccc1,Potency,[1],inactive
same,Potency,[2],inactive
same,Potency,[7],active: 20.2 µM
same,Potency,[14],"inconclusive: 49.3 µM [activator, partial curve, poor fit]"
O=[N+]([O-])c1cc([As](=O)(O)O)ccc1O,Potency,[1],"inconclusive: 68.6 µM [cytotoxic, partial curve]"
same,Potency,[3],inactive
same,Potency,[15],"inconclusive: 0.266 µM [rising, partial curve, poor fit]"
same,Potency,[7],inactive
same,Potency,[17],"inconclusive: 54.1 µM [falling, partial curve, poor fit]"
same,Potency,[9],"inconclusive: 68.1 µM [cytotoxic, partial curve, poor fit]"
same,Potency,[18],"inconclusive: 54.5 µM [cytotoxic, partial curve, poor fit]"
same,Potency,[11],"inconclusive: 43 µM [cytotoxic, partial curve] and inconclusive: 68.6 µM [cytotoxic, single point] and inactive"
